# Results from PubChem BioAssay (NCATS).
# Values joined by “and” are separate entries in the source; they are usually repeats but may differ in a detail not shown here. Equal entries are not always repeated. This list was built around the results that the source calls inconclusive (neither active nor inactive); the mix of calls is not that of the screen. Potencies of inconclusive entries are doubtful fits and often do not repeat. Active and inactive are the calls of the source. Unless noted, the call rests on the fitted dose curve; in most records, active means well fitted curve in the direction sought with a large enough effect; inconclusive means small, poorly fitted or top-dose-only effect, or another doubt; inactive means no such curve, though single readings can be large; an effect the other way counts as inactive or inconclusive.
# Key:
# [1] = target: Calcium and integrin-binding protein 1 (Homo sapiens) (UniProt Q99828); assay: Primary qHTS for Identification of Calcium Integrin Binding Protein 1 (CIB1) Competitor (AID 1508620)
# Summary of the method: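 CIB1-GST (1 uM final) and compound incubated 15 min at room temperature before adding FITC-alphaIIb peptide tracer (100 nM final). Competition for binding read by fluorescence polarization (ex 480, em 540) after another 15 min at room temperature.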
# [2] = A High-Content qHTS Against Drug Library for the Identification of Small Molecules that Inhibit DYT1 Early Onset Primary Dystonia-Associated Cell Pathology (AID 1645839; calls by dose curve)
# Summary of the method: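 In this high-content image screen, delE TorsinA mislocalization in inducible Flp-In 293 cells is scored as %pathology, with cell count serving as the counterscreen. Compound exposure lasts 48 h under tetracycline induction in reduced-serum medium.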
# [3] = target: Cytochrome P450 3A4 (Homo sapiens) (UniProt P08684); assay: Cytochrome P450 family 3 subfamily A member 4 (CYP3A4) small molecule antagonists: luciferase qHTS assay (AID 1645841; active means well fitted curve in the direction sought with a large enough effect in the repeat runs; inconclusive means weak or mixed curves; inactive means no such curve, though single readings can be large; an effect the other way counts as inactive or inconclusive; further: nearly all actives have a fitted effect of over 45% in size)
# Summary of the method: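 Luminescent CYP3A4 activity readout: compounds plus enzyme-substrate mix 10 min at room temperature, reaction started with NADPH regenerating system for 1 h, stopped with detection reagent, read after 20 min. Ketoconazole served as control.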
# [4] = Cytotoxicity counterscreen for inhibitors of SARS-CoV-2 cell entry (AID 1645845; calls by dose curve; further: nearly all actives have a fitted effect of over 50% in size; on activity change, negative = cytotoxicity: on the % scale 0 is the no-effect control and ±100 the full control effect); settings: activity change, negative = cytotoxicity: at 57.1 µM (top of the series) unless noted
# Summary of the method: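 48 h compound treatment (after 1 h preincubation), HEK293-ACE2 cells, 37 C/5% CO2; ATP luminescence endpoint; normalized to cell wells and media blanks.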
# [5] = Counterscreen qHTS for small molecule stabilizers of the endoplasmic reticulum resident proteome: GLuc-NoTag assay (AID 1508627);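 on activity change, negative = inhibition: SH-SY5Y cells given compound then 100 nM thapsigargin to empty ER calcium; 0% = thapsigargin alone and -100% = DMSO vehicle control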
# Summary of the method: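 Luminescence of Gaussia luciferase secreted into the medium (coelenterazine, 0.07x final, unlysed cells) was the read-out. Human SH-SY5Y neuroblastoma cells constitutively secreting untagged GLuc received compound for 19 h, then 100 nM thapsigargin for 4 h.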
# [6] = Confirmatory qHTS for small molecule stabilizers of the endoplasmic reticulum resident proteome: Secreted ER Calcium Modulated Protein (SERCaMP) assay (AID 1508628); further: nearly all actives have a fitted effect of over 40% in size
# Summary of the method: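 SH-SY5Y cells stably expressing GLuc-SERCaMP, treated 16 h with compound (primary 1.53, 7.67, 38.3 uM; confirmation 11 concentrations, up to 76.6 uM), then 100 nM thapsigargin for 4 h. Secreted Gaussia luciferase in medium read by coelenterazine luminescence.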
# [7] = Cell Viability qHTS for small molecule stabilizers of the endoplasmic reticulum resident proteome (AID 1508629); settings: cell viability counter-screen, 100 nM thapsigargin for final 4 h;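 further: compound exposure about 46 h in total before the viability read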;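 on max response: human SH-SY5Y neuroblastoma cells carrying the GLuc-SERCaMP reporter; on the % scale 0 is the no-effect control and ±100 the full control effect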
# [8] = Primary qHTS for small molecule stabilizers of the endoplasmic reticulum resident proteome: Secreted ER Calcium Modulated Protein (SERCaMP) assay (AID 1508630); settings: SH-SY5Y GLuc-SERCaMP (Gaussia luciferase released on ER calcium loss) secretion, thapsigargin, luminescence; activity change, negative = inhibition: at 38.4 µM (top of the series); on activity change, negative = inhibition: on the % scale 0 is the no-effect control and ±100 the full control effect
# Summary of the method: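 GLuc-SERCaMP-expressing SH-SY5Y cells, pretreated 16 h with compound, are challenged with thapsigargin to empty ER calcium stores; after 4 h, coelenterazine is added directly to the medium and luminescence is imaged.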
# [9] = target: Cytochrome P450 2D6 (Homo sapiens) (UniProt P10635); assay: Cytochrome P450 family 2 subfamily D member 6 (CYP2D6) small molecule antagonists: luciferase biochemical (cell-free) qHTS assay (AID 1645840; active means well fitted curve in the direction sought with a large enough effect in the repeat runs; inconclusive means weak or mixed curves; inactive means no such curve, though single readings can be large; an effect the other way counts as inactive or inconclusive; further: nearly all actives have a fitted effect of over 55% in size)
# Summary of the method: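 P450-Glo luminescent screen: recombinant CYP2D6 enzyme–proluciferin substrate mix preincubated with compound 10 min at room temperature, then NADPH regeneration added for 1 h at room temperature. Detection reagent added for 20 min; luciferin light read as relative luminescence units.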
# [10] = target: Cytochrome P450 2C9 (Homo sapiens) (UniProt P11712); assay: Cytochrome P450 family 2 subfamily C member 9 (CYP2C9) small molecule antagonists: luciferase biochemical (cell-free) qHTS assay (AID 1645842; active means well fitted curve in the direction sought with a large enough effect in the repeat runs; inconclusive means weak or mixed curves; inactive means no such curve, though single readings can be large; an effect the other way counts as inactive or inconclusive; further: nearly all actives have a fitted effect of over 55% in size; on activity change, negative = inhibition: on the % scale 0 is the no-effect control and ±100 the full control effect)
# Summary of the method: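 Luminescence, after 20 min with luciferin detection reagent, reflected CYP2C9 turnover during a 1 h NADPH-driven reaction at 37C. Enzyme-substrate mix contained 0.4% bovine serum albumin and was preincubated with compound 10 min at room temperature.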
# Potency means the concentration at half of the fitted maximal effect; tags describe the fitted curve by direction and shape.
# Chain of UniProt Q99828 (Q99828 whole entry, looked up): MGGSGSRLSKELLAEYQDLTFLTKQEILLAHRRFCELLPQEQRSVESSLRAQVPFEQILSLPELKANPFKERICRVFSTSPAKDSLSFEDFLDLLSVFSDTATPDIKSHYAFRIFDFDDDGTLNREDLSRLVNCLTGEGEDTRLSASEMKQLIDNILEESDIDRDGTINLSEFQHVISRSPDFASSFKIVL
# Chain of UniProt P10635 (P10635 whole entry, looked up): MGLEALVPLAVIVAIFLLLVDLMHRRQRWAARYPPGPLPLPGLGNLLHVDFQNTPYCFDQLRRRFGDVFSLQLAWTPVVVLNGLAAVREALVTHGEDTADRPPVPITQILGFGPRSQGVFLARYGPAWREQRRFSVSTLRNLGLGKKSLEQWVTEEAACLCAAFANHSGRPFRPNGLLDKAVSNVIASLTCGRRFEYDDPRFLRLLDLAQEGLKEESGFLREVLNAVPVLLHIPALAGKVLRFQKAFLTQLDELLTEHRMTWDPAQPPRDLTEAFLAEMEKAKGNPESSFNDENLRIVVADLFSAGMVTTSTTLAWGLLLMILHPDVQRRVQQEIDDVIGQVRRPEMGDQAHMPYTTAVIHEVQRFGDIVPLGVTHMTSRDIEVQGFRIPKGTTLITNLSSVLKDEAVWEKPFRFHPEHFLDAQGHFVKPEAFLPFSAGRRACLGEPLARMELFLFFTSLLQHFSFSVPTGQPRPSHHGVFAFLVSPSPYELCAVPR
# Chain of UniProt P08684 (P08684 whole entry, looked up): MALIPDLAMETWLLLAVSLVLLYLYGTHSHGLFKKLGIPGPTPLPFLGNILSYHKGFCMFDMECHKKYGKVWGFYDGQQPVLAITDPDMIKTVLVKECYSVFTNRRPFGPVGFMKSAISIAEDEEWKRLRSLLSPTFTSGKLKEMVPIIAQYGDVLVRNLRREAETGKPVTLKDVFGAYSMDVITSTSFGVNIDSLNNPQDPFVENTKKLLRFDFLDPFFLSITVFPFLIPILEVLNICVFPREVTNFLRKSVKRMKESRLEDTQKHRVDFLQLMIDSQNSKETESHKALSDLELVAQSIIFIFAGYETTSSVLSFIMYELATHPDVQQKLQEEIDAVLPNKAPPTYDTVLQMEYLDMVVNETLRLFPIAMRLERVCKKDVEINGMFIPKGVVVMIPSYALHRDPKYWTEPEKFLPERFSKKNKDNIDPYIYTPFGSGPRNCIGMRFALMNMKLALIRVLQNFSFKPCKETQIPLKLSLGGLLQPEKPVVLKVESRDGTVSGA
# Chain of UniProt P11712 (P11712 whole entry, looked up): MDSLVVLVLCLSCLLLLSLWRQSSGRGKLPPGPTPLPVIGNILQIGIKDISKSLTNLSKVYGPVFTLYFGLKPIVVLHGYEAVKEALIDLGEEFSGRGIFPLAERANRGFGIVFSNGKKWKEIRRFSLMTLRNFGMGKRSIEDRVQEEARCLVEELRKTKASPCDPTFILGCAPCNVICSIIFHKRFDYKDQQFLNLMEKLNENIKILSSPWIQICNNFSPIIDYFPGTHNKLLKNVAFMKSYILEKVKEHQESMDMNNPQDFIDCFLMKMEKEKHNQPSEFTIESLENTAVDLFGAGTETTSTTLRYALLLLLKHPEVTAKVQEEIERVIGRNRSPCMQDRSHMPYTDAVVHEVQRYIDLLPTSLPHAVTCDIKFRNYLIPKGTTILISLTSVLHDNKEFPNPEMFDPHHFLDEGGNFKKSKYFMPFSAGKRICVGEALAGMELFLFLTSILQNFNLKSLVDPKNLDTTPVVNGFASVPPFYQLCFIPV
structure (smiles),measurement,setting,value
Cc1ccc([N+](=O)[O-])[c]2c1[O][Hg]2,Potency,[1],"inconclusive: 3.55 µM [inhibitor, full curve, poor fit]"
same,Potency,[2],"inconclusive: 1.78 µM [inhibitor, full curve, poor fit]"
same,Potency,[3],active: 0.977 µM
same,Potency,[4],"inconclusive: 10 µM [cytotoxic, partial curve, poor fit]"
C[C@@H]1C[C@@H]([C@H](O)CC2CC(=O)NC(=O)C2)C(=O)[C@@H](C)C1,Potency,[5],active: 1.58 µM and active: 1.12 µM
same,Potency,[6],"inconclusive: 0.251 µM [inhibitor, full curve]"
same,Potency,[7],"inconclusive: 1.12 µM [cytotoxic, full curve] and inconclusive: 1 µM [cytotoxic, full curve]"
same,Potency,[8],"inconclusive: 10 µM [inhibitor, partial curve, poor fit] and inconclusive: 211 nM [inhibitor, full curve]"
same,Potency,[2],"inconclusive: 7.08 µM [inhibitor, full curve, poor fit]"
same,"activity change, negative = cytotoxicity",[4],inconclusive: -50.2%
CN(C)C(=S)SSC(=S)N(C)C,Potency,[1],active: 39.8 µM
same,Potency,[8],"inconclusive: 2 µM [inhibitor, full curve]"
same,Potency,[2],"inconclusive: 35.5 µM [inhibitor, single point]"
same,Potency,[9],"inconclusive: 0.977 µM [inhibitor, single point]"
same,Potency,[3],"inconclusive: 1.1 µM [falling, single point]"
same,Potency,[4],active: 1.58 µM
CN1CC[C@@]2(C)c3cc(OC(=O)Nc4ccccc4)ccc3N(C)[C@@H]12,Potency,[5],inactive
same,Potency,[6],active: 39.8 µM
same,Potency,[7],"inconclusive: 14100 nM [cytotoxic, partial curve, poor fit]"
same,Potency,[8],"inconclusive: 31.6 µM [inhibitor, partial curve, poor fit] and inactive"
O=C(CCCN1CCC2(CC1)C(=O)NCN2c1ccccc1)c1ccc(F)cc1,Potency,[5],"inconclusive: 15.8 µM [inhibitor, partial curve, poor fit] and inconclusive: 5.62 µM [inhibitor, full curve] and inconclusive: 11.2 µM [inhibitor, full curve]"
same,Potency,[6],active: 5.62 µM and active: 2.24 µM and active: 3.16 µM
same,Potency,[8],"inconclusive: 2.24 µM [inhibitor, full curve, poor fit] and active: 1 µM and inconclusive: 2.51 µM [inhibitor, full curve, poor fit]"
CCN(CC)CCOC(=O)C(O)(c1ccccc1)c1ccccc1,Potency,[5],inactive
same,Potency,[8],"inconclusive: 10 µM [inhibitor, partial curve, poor fit]"
same,Potency,[3],"inconclusive: 15.5 µM [falling, partial curve]"
same,Potency,[10],inactive
C=C1[C@@H](C)[C@H]2[C@H](Cc3ccccc3)NC(=O)[C@]23OC(=O)/C=C/C(=O)CCC[C@@H](C)C/C=C/[C@H]3[C@@H]1O,Potency,[1],active: 20 µM
C[C@H](N)C(=O)c1ccccc1,Potency,[5],inactive
same,Potency,[6],"inconclusive: 79.4 µM [inhibitor, partial curve]"
same,Potency,[7],"inconclusive: 562 nM [rising, full curve]"
same,Potency,[8],"inconclusive: 22.4 µM [inhibitor, partial curve, poor fit]"
same,Potency,[10],"inconclusive: 106 µM [inhibitor, single point]"
CCC(=O)C(CC(C)N(C)C)(c1ccccc1)c1ccccc1 (configuration not stated),Potency,[6],active: 35.5 µM
same,Potency,[7],"inconclusive: 39800 nM [cytotoxic, partial curve]"
same,Potency,[2],"inconclusive: 39.8 µM [inhibitor, single point]"
COC1=C[C@@H]2[C@@H]3Cc4ccc(OC)c(O)c4[C@]2(CCN3C)CC1=O,Potency,[8],"inconclusive: 29.8 µM [inhibitor, partial curve, poor fit]"
c1cc2c(c(N3CCNCC3)c1)OCCO2,Potency,[6],"inactive and inconclusive: 1.26 µM [inhibitor, full curve]"
same,Potency,[7],"inconclusive: 355 nM [rising, full curve]"
same,max response,[7],inactive: 5.26%
same,Potency,[8],"inconclusive: 31.6 µM [inhibitor, partial curve, poor fit] and inconclusive: 2.82 µM [inhibitor, full curve, poor fit]"
O=c1oc2ccccc2c(O)c1Cc1c(O)c2ccccc2oc1=O,Potency,[7],"inconclusive: 158 nM [rising, full curve]"
same,Potency,[9],"inconclusive: 2.75 µM [inhibitor, full curve, poor fit]"
N#C/C(=C/c1ccc(O)c(O)c1)C(N)=S,Potency,[6],active: 10 µM
same,Potency,[7],"inconclusive: 14100 nM [cytotoxic, partial curve]"
same,Potency,[8],"inconclusive: 8.91 µM [inhibitor, partial curve, poor fit]"
CC(C)=C[C@@H]1[C@@H](C(=O)OCc2coc(Cc3ccccc3)c2)C1(C)C,Potency,[8],inactive
COc1c2c(cc3c1OCO3)CCN(C)C2,Potency,[6],inactive
same,max response,[7],inactive: 7.99%
same,Potency,[8],"inconclusive: 10 µM [inhibitor, partial curve, poor fit]"
CC=C(C)C(=O)O[C@H]1C(C)=C2[C@@H]3OC(=O)[C@@](C)(O)[C@@]3(O)[C@@H](OC(=O)CCC)C[C@](C)(OC(C)=O)[C@@H]2[C@@H]1OC(=O)CCCCCCC,Potency,[7],active: 282 nM
C[C@H]1[C@@H]2Cc3ccc(O)cc3[C@@]1(C)CCN2C,Potency,[7],"inconclusive: 1780 nM [rising, full curve, poor fit]"
same,Potency,[8],"inconclusive: 35.5 µM [inhibitor, partial curve, poor fit]"
C#CC(O)(C=CCl)CC (configuration not stated),Potency,[8],"inconclusive: 31.6 µM [inhibitor, single point]"
Cc1cccc(C)c1NC1=NCCCS1,Potency,[8],inactive
CNCC(O)c1ccc(O)cc1 (configuration not stated),Potency,[8],"inconclusive: 0.0015 µM [inhibitor, full curve, poor fit]"
Clc1cccc(SC2CCNCC2)n1,Potency,[8],"inconclusive: 31.6 µM [inhibitor, single point] and inconclusive: 10 µM [inhibitor, partial curve, poor fit]"
NCC(O)c1ccc(O)cc1 (configuration not stated),Potency,[8],"inconclusive: 35.5 µM [inhibitor, full curve]"
Oc1ccc2c3c1O[C@H]1[C@@H](O)C=C[C@H]4[C@@H](C2)NCC[C@@]341,Potency,[6],"inconclusive: 56.2 µM [inhibitor, partial curve]"
same,Potency,[7],"inconclusive: 35500 nM [cytotoxic, partial curve]"
same,Potency,[8],"inconclusive: 31.6 µM [inhibitor, partial curve, poor fit]"
same,Potency,[9],"inconclusive: 46.1 µM [inhibitor, partial curve]"
C[C@H]1CCCC=CC2C[C@H](O)C[C@@H]2[C@H](O)C=CC(=O)O1 (some centres not stated),Potency,[6],inactive
same,Potency,[7],active: 70.8 nM
C[C@@H]1CC[C@H]2[C@@H](C)C(=O)O[C@@H]3O[C@@]4(C)CC[C@H]1[C@]32OO4,Potency,[8],inactive
OC(c1ccccc1)(c1ccccc1)C1CCNCC1,Potency,[6],active: 15.8 µM
same,max response,[7],inactive: -6.14%
same,Potency,[8],"inconclusive: 11.2 µM [inhibitor, partial curve, poor fit]"
same,Potency,[9],"inconclusive: 34.7 µM [inhibitor, single point]"
CCC(=O)OC1(c2ccccc2)CCN(C)CC1,Potency,[6],"inconclusive: 70.8 µM [inhibitor, partial curve, poor fit]"
same,Potency,[7],"inconclusive: 178 nM [rising, full curve, poor fit]"
same,Potency,[8],"inconclusive: 31.6 µM [inhibitor, partial curve, poor fit]"
Nc1ccc(Cl)cc1N,Potency,[6],"inconclusive: 14.1 µM [inhibitor, full curve]"
same,max response,[7],inactive: 1.89%
same,Potency,[8],"inconclusive: 31.6 µM [inhibitor, partial curve, poor fit]"
same,Potency,[2],"inconclusive: 7.94 µM [inhibitor, full curve, poor fit]"
same,Potency,[3],active: 7.96 µM
CC1=NN=C(c2ccc(N)cc2)c2cc3c(cc2C1)OCO3,Potency,[8],inactive
CC(C)=CCN1CC[C@@]2(C)c3cc(O)ccc3C[C@@H]1[C@@H]2C,Potency,[6],active: 28.2 µM
same,Potency,[8],"inconclusive: 50.1 µM [inhibitor, single point]"
same,Potency,[10],inactive
CC[C@@H](C(N)=O)N1CCCC1=O,Potency,[8],"inconclusive: 35.5 µM [inhibitor, partial curve, poor fit]"
O=C(O)C(Cl)Cl,Potency,[8],"inconclusive: 1 µM [inhibitor, full curve]"
O=C(N/N=C/c1ccc([N+](=O)[O-])o1)c1cc([N+](=O)[O-])cc([N+](=O)[O-])c1O,Potency,[8],inactive
C[C@H]1CCC/C=C/C2C[C@H](O)C[C@H]2[C@H](O)/C=C/C(=O)O1 (some centres not stated),Potency,[6],inactive
same,Potency,[8],active: 0.316 µM
ClCc1cccc(Cl)c1,Potency,[8],"inconclusive: 3.55 µM [inhibitor, full curve, poor fit]"
CN1CCc2cc(Cl)c(O)cc2[C@H]2c3ccccc3CC[C@@H]21,Potency,[8],"inconclusive: 28.2 µM [inhibitor, single point]"
CCOP(=O)(NC(C)C)Oc1ccc(SC)c(C)c1 (configuration not stated),Potency,[8],"inconclusive: 31.6 µM [inhibitor, partial curve, poor fit]"
CCCC[N+]1(C)[C@@H]2CC(OC(=O)[C@H](CO)c3ccccc3)C[C@H]1[C@@H]1O[C@@H]12 (some centres not stated),Potency,[6],inactive
same,Potency,[7],"inconclusive: 447 nM [rising, full curve]"
same,Potency,[8],"inconclusive: 10 µM [inhibitor, partial curve, poor fit]"
